The other results are listed elsewhere or left out. Sequences were assembled here from the parent chain. Values near 0.05 are background.
B1: TEV protease; numbered along this chain (parent)
chain: MGESLFKGPRDYNPISSSICHLTNESDGHTTSLYGIGFGPFIITNKHLFRRNNGTLVVQSLHGVFKVKDTTTLQQHLVDGRDMIIIRMPKDFPPFPQKLKFREPQREERICLVTTNFQTKSMSSMVSDTSCTFPSGDGIFWKHWIQTKDGQCGSPLVSTRDGFIVGIHSASNFTNTNNYFTSVPKNFMELLTNQEAQQWVSGWRLNADSVLWGGHKVFMVKPEEPFQPVKEATQL

Variants of: B1
Assay: raw area under fraction-flipped curve 0-4 h after induction (AUC4h, not background-subtracted), DNA-recorder readout of cleavage of the substrate (dimensionless); higher = more cleavage of the substrate by the protease variant
Details: temperature: 34 °C; time window: 0-4 h after rhamnose induction
Description: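 In vivo DNA recorder in E. coli TOP10(DE3) ΔrhaA at 34 °C. Each TEVp single-site mutant (parent TEVp 0) is paired with a single-site variant of the 7-mer TEVs (canonical ENLYFQ|S). The substrate sits between flexible linkers in a Bxb1-sfGFP-TEVs-SsrA fusion, so cleavage stabilises Bxb1 and speeds flipping of a recombination array, read by NGS. The value is the raw area under the fraction-flipped curve over 0-4 h after rhamnose induction (AUC4h), with ≥20 reads per time point. It is not background-subtracted; inactive controls average about 0.047.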
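Note: Bxb1 expression induced with 0.2% (w/v) L-rhamnose at OD600 near 0.5, cultures sampled hourly, flipped fraction per protease–substrate barcode pair counted by paired-end Illumina sequencing.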

Variant	area with substrate ENLAFQS	area with substrate ENLCFQS	area with substrate ENLDFQS	area with substrate ENLEFQS	area with substrate ENLFFQS	area with substrate ENLGFQS	area with substrate ENLHFQS	area with substrate ENLKFQS	area with substrate ENLLFQS	area with substrate ENLNFQS	area with substrate ENLPFQS	area with substrate ENLQFQS	area with substrate ENLRFQS	area with substrate ENLSFQS	area with substrate ENLTFQS	area with substrate ENLVFQS	area with substrate ENLWFQS	area with substrate ENLMFQS	area with substrate ENLIFQS
D91H	0.065	0.0858	0.0542	0.0617	0.0788	0.0481	0.0728	0.0712	0.0691	0.0642	0.0631	0.0594	0.0765	0.072	0.086	0.0985	0.0851		
D91A	0.0708		0.0402		0.0608		0.0547		0.0946	0.0852	0.0484		0.0915			0.0905	0.0794	0.0606	
N116Q	0.0631		0.0662	0.0899	0.0823	0.0674	0.0617	0.0741	0.0527	0.0756	0.0673	0.0613	0.0765	0.0696		0.0855	0.0571		0.0717
N116D	0.117		0.0768	0.0331	0.0884		0.0593	0.0879		0.0585	0.065	0.0708	0.0685	0.0533		0.0942			0.072
P94G	0.0483		0.0652		0.0977				0.0554	0.069	0.0711	0.0723		0.0409		0.109	0.071		0.0961
E108T	0.0455	0.125	0.0614	0.0656	0.0631	0.0497	0.0235			0.0598	0.0577	0.0613	0.0542	0.0543	0.0612	0.0674			0.0686
K100E	0.0556		0.0607		0.0656	0.0792	0.063	0.0767	0.0719	0.0648	0.0567		0.088	0.0605			0.0692	0.061	0.0733
K100V	0.0744		0.0593	0.0589	0.0843		0.0712		0.0781	0.0533	0.063	0.0762	0.0737	0.0724		0.076	0.0613		
T71C	0.0586	0.0668	0.0645	0.0733	0.0795		0.0676	0.0749		0.063	0.0569	0.0671		0.0559	0.0673		0.0592	0.0748	0.0892
V67T	0.0591	0.0661	0.0674			0.0641	0.0689	0.0308	0.0754		0.0594		0.0689			0.0818			
R106F	0.0834	0.078	0.063	0.0654	0.132	0.042	0.0702	0.0711	0.0728	0.0705	0.0596	0.0556		0.0638			0.0557	0.0675	0.0867
L73P	0.069	0.0519		0.0626	0.0554	0.0589	0.0647	0.0537	0.0578	0.059	0.0253	0.0441	0.0623	0.0514			0.0445		
L73Y	0.0541	0.0575	0.064	0.0492	0.0652	0.0712	0.0563	0.0619	0.0576	0.0585	0.0534		0.0556	0.0472			0.0619	0.0683	0.0636
C111Y	0.0683	0.136	0.0553	0.0603	0.094	0.0595		0.0811	0.0773	0.0689			0.0624	0.0474			0.0685		0.0624
L77S	0.0692	0.0598	0.0647		0.0749		0.0629	0.0754	0.051	0.0621		0.0585	0.0533	0.0672					0.0613
L77N	0.0459	0.0573	0.06	0.0642	0.0644	0.0605	0.0653	0.0723		0.0637	0.0628	0.0623	0.0575	0.0541	0.0683		0.0571	0.0649	0.0789
S124W	0.0792		0.0643	0.0622			0.0699			0.0461	0.0514	0.0717	0.0669	0.0583		0.0932		0.0651	0.104
Q75C	0.0579		0.0636		0.0699		0.0759	0.0803		0.0581	0.0616			0.0656	0.087			0.0849	0.0947
T115N	0.0525		0.0667	0.0661	0.0601			0.0641	0.0445		0.065	0.066		0.0515					
V126W	0.0657		0.057		0.0995		0.064	0.0918	0.0687	0.0609	0.0423		0.0847	0.0594		0.0599			0.0807
V126F	0.0579		0.0706	0.0684	0.0882	0.128	0.0877	0.0846	0.0645		0.0657		0.101	0.0638			0.0746		0.108
V126N	0.0535	0.0698	0.0551		0.0945		0.0682		0.0657	0.0628	0.0569			0.0509	0.0642	0.0757	0.0686	0.0723	
V126M	0.062	0.0782	0.0645	0.0299	0.0806		0.0685	0.0883		0.0651	0.0504	0.0799	0.0745				0.0572	0.0645	0.0799
E103Q	0.0677		0.0736	0.0594	0.0691		0.0516	0.077	0.072	0.0696	0.056	0.0717		0.0711	0.0771	0.0666	0.0567	0.0724	0.0773
E103C	0.0762	0.0954	0.0626	0.0798	0.1		0.0654	0.0775	0.0672	0.0658			0.0695	0.0791		0.11	0.108		
E103L	0.0846	0.0773	0.0579		0.114		0.07	0.0776		0.0474	0.0657	0.0798	0.098	0.0824			0.0979		0.0912

— the supplement of paper PMC12217912
